Sequences with one replicate were seen in a single cluster, so their values are uncertain.
These sequences were tested on ATP (assay: switch fluorescence ratio, 500 uM ATP over buffer (Cy3 cluster intensity, sum of 5 cycles each) (fold (ratio)); higher = stronger signal-on switching upon ATP binding; sequences stand for … in TCGTCGGCAGCGTCAGATGTGTATAAGAGACAGTTTTTTTTTTTTTTTTTTTTTTTTT…TC). Settings: aptamer strand: ATP DNA aptamer (quencher-CACCTGGGGGAGTATTGCGGAGGAAGG + anchor), 100 nM annealed; ATP concentration: 500 uM; one replicate.
Summary of the method: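 Between each of five buffer/ATP cycles, the flow-cell was stripped with NaOH and re-annealed. Each cycle imaged Cy3-labelled switching-strand clusters, annealed to 100 nM quencher-labelled ATP aptamer on a modified Illumina MiSeq flow-cell, first in selection buffer and then after 15 min with 500 uM ATP at 22 °C. The fluorescence ratio is summed target-cycle over summed buffer-cycle Cy3 intensity per cluster, averaged per switch-domain sequence, with clusters outside 100-1000 RFU excluded.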
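Note: ATP exposure 15 min at 22 °C before imaging.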

Row | Sequence | switch fluorescence ratio
1 | TTATGCATAT | 1.03
2 | TTATGCTCAT | 0.979
3 | TTATGGCCCA | 0.961
4 | TTATGGGTAT | 0.96
5 | TTATGTCGGT | 0.981
6 | TTATGTTAT | 1.02
7 | TTATTAACAC | 1.03
8 | TTATTATGTC | 0.901
9 | TTATTCAACA | 0.987
10 | TTATTGAGGG | 1.02
11 | TTATTGCCGG | 1
12 | TTATTGTTTC | 1.06
13 | TTATTTAACT | 0.985
14 | TTATTTACCA | 0.958
15 | TTATTTAGAT | 1.03
16 | TTATTTGCAG | 0.98
17 | TTATTTGTC | 0.995
18 | TTCAAACGTA | 1
19 | TTCAAAGCTA | 1.16
20 | TTCAAATCTC | 0.964
21 | TTCAACACTG | 0.99
22 | TTCAAGCAAT | 2.71
23 | TTCAAGCTCG | 0.986
24 | TTCAAGTATA | 1.03
25 | TTCAATATTA | 1

Row | Sequence | switch fluorescence ratio
26 | TTCAATTAAA | 0.985
27 | TTCACAATGT | 1.05
28 | TTCACAGATT | 1.02
29 | TTCACCAGAC | 1.13
30 | TTCACCGAA | 1.09
31 | TTCACCGGAT | 1.04
32 | TTCACCTCTT | 1
33 | TTCACGCGCC | 1.1
34 | TTCACGGGGA | 1.03
35 | TTCACTCGCA | 1.11
36 | TTCAGAGAGG | 1.02
37 | TTCAGCAGTG | 1.01
38 | TTCAGCTAGC | 0.985
39 | TTCAGCTCCA | 1.01
40 | TTCAGGACGT | 1.02
41 | TTCAGGTGAT | 1.43
42 | TTCAGTAGGG | 1.02
43 | TTCAGTATGC | 1.04
44 | TTCAGTCTA | 0.988
45 | TTCAGTGCGG | 1.01
46 | TTCATAAAAT | 1.07
47 | TTCATAGCGC | 1.03
48 | TTCATCAAGC | 1.1
49 | TTCATCATAA | 1.02
50 | TTCATCGATT | 0.977

Row | Sequence | switch fluorescence ratio
51 | TTCATGAAAA | 0.973
52 | TTCATGATAC | 1.17
53 | TTCATGATTA | 0.993
54 | TTCATGCCTT | 0.955
55 | TTCATGGTGA | 1.01
56 | TTCATGTGCT | 0.995
57 | TTCATTACCT | 1.16
58 | TTCATTCTGT | 0.989
59 | TTCATTGTA | 0.993
60 | TTCATTTCTT | 0.999
61 | TTCCAAACCC | 1.08
62 | TTCCAAGAGG | 0.997
63 | TTCCACATAT | 1.09
64 | TTCCACCACG | 1.05
65 | TTCCAGATCT | 1.01
66 | TTCCAGGAGG | 1.04
67 | TTCCAGTCAC | 1.05
68 | TTCCATTGT | 1.03
69 | TTCCCACGCA | 5.55
70 | TTCCCATACG | 1.19
71 | TTCCCATGGT | 1.18
72 | TTCCCCATT | 1.13
73 | TTCCCGGAAC | 1.41
74 | TTCCCGTG | 0.973
75 | TTCCCGTGTC | 2.2

Row | Sequence | switch fluorescence ratio
76 | TTCCCTTAAC | 1.03
77 | TTCCGACTAA | 2.42
78 | TTCCGCAGAG | 4.13
79 | TTCCGCTTCT | 1.43
80 | TTCCGGAAAT | 1.05
81 | TTCCGGGATG | 1.08
82 | TTCCGGGTCT | 0.997
83 | TTCCGGTGTG | 0.972
84 | TTCCGTCCCT | 1.08
85 | TTCCGTCGAT | 1
86 | TTCCGTTCTT | 0.951
87 | TTCCTAAGTT | 1.02
88 | TTCCTACGG | 1.11
89 | TTCCTAGGGC | 0.995
90 | TTCCTAGGGT | 1.1
91 | TTCCTCCAGA | 1.22
92 | TTCCTCCTGT | 1.01
93 | TTCCTGATCT | 1.04
94 | TTCCTTATTG | 0.964
95 | TTCGAAAGGA | 0.98
96 | TTCGAGAGGA | 0.982
97 | TTCGAGGATT | 0.993
98 | TTCGAGTAGC | 1.01
99 | TTCGAGTGCG | 0.932
100 | TTCGATACGC | 1.02
